According to the supplement of paper PMC12217912:
The other results are listed elsewhere or left out. The full chains were built here from the parent and the listed change. Values near 0.05 are background.

B1: TEV protease; numbered along this chain (parent)
chain: MGESLFKGPRDYNPISSSICHLTNESDGHTTSLYGIGFGPFIITNKHLFRRNNGTLVVQSLHGVFKVKDTTTLQQHLVDGRDMIIIRMPKDFPPFPQKLKFREPQREERICLVTTNFQTKSMSSMVSDTSCTFPSGDGIFWKHWIQTKDGQCGSPLVSTRDGFIVGIHSASNFTNTNNYFTSVPKNFMELLTNQEAQQWVSGWRLNADSVLWGGHKVFMVKPEEPFQPVKEATQL

Variants of: B1
Assay: raw area under fraction-flipped curve 0-4 h after induction (AUC4h, not background-subtracted), DNA-recorder readout of cleavage of the substrate (dimensionless); higher = more cleavage of the substrate by the protease variant
Conditions: temperature: 34 °C; time window: 0-4 h after rhamnose induction
Experimental: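 In vivo DNA recorder in E. coli TOP10(DE3) ΔrhaA at 34 °C. Each TEVp single-site mutant (parent TEVp 0) is paired with a single-site variant of the 7-mer TEVs (canonical ENLYFQ|S). The substrate sits between flexible linkers in a Bxb1-sfGFP-TEVs-SsrA fusion, so cleavage stabilises Bxb1 and speeds flipping of a recombination array, read by NGS. The value is the raw area under the fraction-flipped curve over 0-4 h after rhamnose induction (AUC4h), with ≥20 reads per time point. It is not background-subtracted; inactive controls average about 0.047.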
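Further: Bxb1 expression induced with 0.2% (w/v) L-rhamnose at OD600 near 0.5, cultures sampled hourly, flipped fraction per protease–substrate barcode pair counted by paired-end Illumina sequencing.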

Row | Variant | area with substrate ENAYFQS | area with substrate ENCYFQS | area with substrate ENDYFQS | area with substrate ENEYFQS | area with substrate ENGYFQS | area with substrate ENIYFQS | area with substrate ENNYFQS | area with substrate ENQYFQS | area with substrate ENSYFQS | area with substrate ENTYFQS | area with substrate ENVYFQS | area with substrate ENYYFQS | area with substrate ENHYFQS | area with substrate ENPYFQS | area with substrate ENRYFQS | area with substrate ENWYFQS | area with substrate ENFYFQS | area with substrate ENKYFQS | area with substrate ENMYFQS
1 | MGESLFKGPRDYNPISSSICHLTNESDGHTTSLYGIGFGPFIITNKHLFRRNNGTLVVCSLHGVFKVKDTTTLQQHLVDGRDMIIIRMPKDFPPFPQKLKFREPQREERICLVTTNFQTKSMSSMVSDTSCTFPSGDGIFWKHWIQTKDGQCGSPLVSTRDGFIVGIHSASNFTNTNNYFTSVPKNFMELLTNQEAQQWVSGWRLNADSVLWGGHKVFMVKPEEPFQPVKEATQL [Q59C] | 0.0545 | 0.0748 | 0.0478 | 0.0625 | 0.0632 | 0.121 | 0.0713 | 0.0702 | 0.0582 | 0.0671 | 0.075 | 0.0572 |  |  |  |  |  |  | 
2 | MGESLFKGPRDYNPISSSICHLTNESDGHTTSLYGIGFGPFIITNKHLFRRNNGTLVVESLHGVFKVKDTTTLQQHLVDGRDMIIIRMPKDFPPFPQKLKFREPQREERICLVTTNFQTKSMSSMVSDTSCTFPSGDGIFWKHWIQTKDGQCGSPLVSTRDGFIVGIHSASNFTNTNNYFTSVPKNFMELLTNQEAQQWVSGWRLNADSVLWGGHKVFMVKPEEPFQPVKEATQL [Q59E] | 0.0628 | 0.0825 | 0.069 | 0.0685 | 0.0559 | 0.0933 |  | 0.0511 | 0.03 | 0.0667 | 0.0746 | 0.053 | 0.0567 | 0.0603 | 0.0759 | 0.0713 |  |  | 
3 | MGESLFKGPRDYNPISSSICHLTNESDGHTTSLYGIGFGPFIITNKHLFRRNNGTLVVSSLHGVFKVKDTTTLQQHLVDGRDMIIIRMPKDFPPFPQKLKFREPQREERICLVTTNFQTKSMSSMVSDTSCTFPSGDGIFWKHWIQTKDGQCGSPLVSTRDGFIVGIHSASNFTNTNNYFTSVPKNFMELLTNQEAQQWVSGWRLNADSVLWGGHKVFMVKPEEPFQPVKEATQL [Q59S] | 0.0584 | 0.0558 | 0.0743 | 0.0688 |  |  | 0.0567 | 0.067 | 0.0545 | 0.109 |  | 0.0638 |  |  | 0.0598 |  | 0.0613 | 0.0801 | 0.0756
4 | MGESLFKGPRDYNPISSSICHLTNESDGHTTSLYGIGFGPFIITNKHLFRRNNGTLVVWSLHGVFKVKDTTTLQQHLVDGRDMIIIRMPKDFPPFPQKLKFREPQREERICLVTTNFQTKSMSSMVSDTSCTFPSGDGIFWKHWIQTKDGQCGSPLVSTRDGFIVGIHSASNFTNTNNYFTSVPKNFMELLTNQEAQQWVSGWRLNADSVLWGGHKVFMVKPEEPFQPVKEATQL [Q59W] | 0.0378 | 0.0589 | 0.0501 |  | 0.0366 |  | 0.0812 | 0.0549 | 0.0501 | 0.0897 | 0.0754 | 0.0656 |  |  | 0.0574 | 0.0502 |  | 0.053 | 0.07
5 | MGESLFKGPRDYNPISSSICHLTNESDGHTTSLYGIGFGPFIITNKHLFRRNNGTLVVQNLHGVFKVKDTTTLQQHLVDGRDMIIIRMPKDFPPFPQKLKFREPQREERICLVTTNFQTKSMSSMVSDTSCTFPSGDGIFWKHWIQTKDGQCGSPLVSTRDGFIVGIHSASNFTNTNNYFTSVPKNFMELLTNQEAQQWVSGWRLNADSVLWGGHKVFMVKPEEPFQPVKEATQL [S60N] | 0.0694 | 0.0518 |  | 0.0551 | 0.0519 | 0.089 |  |  | 0.0494 | 0.064 | 0.0796 | 0.057 | 0.0588 | 0.0569 | 0.0633 |  |  |  | 0.0748
6 | MGESLFKGPRDYNPISSSICHLTNESDGHTTSLYGIGFGPFIITNKHLFRRNNGTLVVQSYHGVFKVKDTTTLQQHLVDGRDMIIIRMPKDFPPFPQKLKFREPQREERICLVTTNFQTKSMSSMVSDTSCTFPSGDGIFWKHWIQTKDGQCGSPLVSTRDGFIVGIHSASNFTNTNNYFTSVPKNFMELLTNQEAQQWVSGWRLNADSVLWGGHKVFMVKPEEPFQPVKEATQL [L61Y] | 0.0537 | 0.0666 | 0.0553 | 0.0872 |  | 0.0747 | 0.0781 | 0.0662 | 0.0451 | 0.0558 | 0.0819 | 0.0477 | 0.0582 | 0.07 | 0.0643 | 0.0684 | 0.0416 |  | 
7 | MGESLFKGPRDYNPISSSICHLTNESDGHTTSLYGIGFGPFIITNKHLFRRNNGTLVVQSLEGVFKVKDTTTLQQHLVDGRDMIIIRMPKDFPPFPQKLKFREPQREERICLVTTNFQTKSMSSMVSDTSCTFPSGDGIFWKHWIQTKDGQCGSPLVSTRDGFIVGIHSASNFTNTNNYFTSVPKNFMELLTNQEAQQWVSGWRLNADSVLWGGHKVFMVKPEEPFQPVKEATQL [H62E] | 0.0567 |  | 0.0605 | 0.0532 |  |  | 0.0646 | 0.0722 | 0.0733 | 0.0652 |  |  |  | 0.0574 | 0.066 |  | 0.0797 | 0.0516 | 0.08
8 | MGESLFKGPRDYNPISSSICHLTNESDGHTTSLYGIGFGPFIITNKHLFRRNNGTLVVQSLGGVFKVKDTTTLQQHLVDGRDMIIIRMPKDFPPFPQKLKFREPQREERICLVTTNFQTKSMSSMVSDTSCTFPSGDGIFWKHWIQTKDGQCGSPLVSTRDGFIVGIHSASNFTNTNNYFTSVPKNFMELLTNQEAQQWVSGWRLNADSVLWGGHKVFMVKPEEPFQPVKEATQL [H62G] | 0.0466 |  | 0.0628 | 0.064 | 0.0533 |  | 0.0676 | 0.0595 |  | 0.0837 |  | 0.0509 |  |  | 0.0426 |  |  | 0.0584 | 0.0312
9 | MGESLFKGPRDYNPISSSICHLTNESDGHTTSLYGIGFGPFIITNKHLFRRNNGTLVVQSLPGVFKVKDTTTLQQHLVDGRDMIIIRMPKDFPPFPQKLKFREPQREERICLVTTNFQTKSMSSMVSDTSCTFPSGDGIFWKHWIQTKDGQCGSPLVSTRDGFIVGIHSASNFTNTNNYFTSVPKNFMELLTNQEAQQWVSGWRLNADSVLWGGHKVFMVKPEEPFQPVKEATQL [H62P] | 0.0595 |  | 0.0521 | 0.0589 | 0.0505 | 0.0809 |  | 0.062 |  |  | 0.0596 |  |  |  |  |  | 0.0463 | 0.0684 | 
